# Results reported in a collection of fitness landscapes (doi:10.1126/science.1257360).
# Some of the results follow.
# B1: PhoQ; a variant is named by its letters at X, in order, P23837 (parent)
# chain: MKKLLRLFFPLSLRVRFLLATAAVVLVLSLAYGMVALIGYSVSFDKTTFRLLRGESNLFYTLAKWENNKLHVELPENIDKQSPTMTLIYDENGQLLWAQRDVPWLMKMIQPDWLKSNGFHEIEADVNDTSLLLSGDHSIQQQLQEVREDDDDAEMTHSVAVNVYPATSRMPKLTIVVVDTIPVELKSSYMVWSWFIYVLSANLLLVIPLLWVAAWWSLRPIEALAKEVRELEEHNRELLNPATTRELTSLVRNLNRLLKSERERYDKYRTTLTDLTHSLKTPLXXLQXXLRSLRSEKMSVSDAEPVMLEQISRISQQIGYYLHRASMRGGTLLSRELHPVAPLLDNLTSALNKVYQRKGVNISLDISPEISFVGEQNDFVEVMGNVLDNACKYCLEFVEISARQTDEHLYIVVEDDGPGIPLSKREVIFDRGQRVDTLRPGQGVGLAVAREITEQYEGKIVAGESMLGGARMEVIFGRQHSAPKDE
# Variants of: B1
# Assay: enrichment ratio after two sorts for PhoP signalling (ratio (wild type AVST 3.29)); higher = more functional
# Settings: with PhoP (E. coli)
row,Variant,enrichment ratio
1,SALC,12
2,YSRH,≤ 0.25
3,WFQV,≤ 0.25
4,KVIK,≤ 0.25
5,SFVL,≤ 0.25
6,RDDI,≤ 0.25
7,IWCF,≤ 0.25
8,ISAL,≤ 0.25
9,LEQE,≤ 0.25
10,HTHG,≤ 0.25
11,AETN,≤ 0.25
12,KHMM,≤ 0.25
13,MSIS,≤ 0.25
14,FYNF,≤ 0.25
15,NSKR,≤ 0.25
16,IAEV,≤ 0.25
17,GYYG,≤ 0.25
18,IYRN,≤ 0.25
19,PAQV,≤ 0.25
20,MVDM,≤ 0.25
21,FNWT,≤ 0.25

row,Variant,enrichment ratio
1,APIP,≤ 0.25
2,HSKR,≤ 0.25
3,MDRF,≤ 0.25
4,WQYN,≤ 0.25
5,VDDR,≤ 0.25
6,EQAA,≤ 0.25
7,TTLL,17.7
8,RDYP,≤ 0.25
9,YQQS,≤ 0.25
10,LTQS,≤ 0.25
11,IPIV,≤ 0.25
12,PLWA,≤ 0.25
13,YNNI,≤ 0.25
14,MQAC,3.98
15,INCY,≤ 0.25
16,MHEH,≤ 0.25
17,SHSE,≤ 0.25
18,DDWP,≤ 0.25
19,HAPN,≤ 0.25
20,VCEI,≤ 0.25
21,FFGH,≤ 0.25

row,Variant,enrichment ratio
1,IAFE,≤ 0.25
2,TGMQ,≤ 0.25
3,TLNW,≤ 0.25
4,AQAM,1.45
5,YVFE,≤ 0.25
6,VMMN,≤ 0.25
7,PKIT,≤ 0.25
8,AQFN,≤ 0.25
9,WHTC,≤ 0.25
10,FVCQ,≤ 0.25
11,PCPG,≤ 0.25
12,YSIP,≤ 0.25
13,EVEF,≤ 0.25
14,KHHK,≤ 0.25
15,YQNY,≤ 0.25
16,GHNK,≤ 0.25
17,NGIY,≤ 0.25
18,KLDD,≤ 0.25
19,LIAA,≤ 0.25
20,PPRD,≤ 0.25
21,HVQR,≤ 0.25

row,Variant,enrichment ratio
1,MARN,≤ 0.25
2,NNSK,≤ 0.25
3,VGGE,≤ 0.25
4,YKCT,≤ 0.25
5,KHSQ,≤ 0.25
6,DNWD,≤ 0.25
7,HSWS,≤ 0.25
8,VFQI,≤ 0.25
9,NGHV,≤ 0.25
10,ILTK,≤ 0.25
11,TPRR,≤ 0.25
12,FDFR,≤ 0.25
13,GDTA,≤ 0.25
14,THCP,≤ 0.25
15,DVFS,≤ 0.25
16,QVLY,≤ 0.25
17,YQPS,≤ 0.25
18,TRPV,≤ 0.25
19,FCCQ,≤ 0.25
20,DLSF,≤ 0.25
21,WPNN,≤ 0.25
